Test results as given in PubChem BioAssay AID1347120 (National Center for Advancing Translational Sciences (NCATS), 2019).
The whole screen tested about 390,000 compounds, of which about 930 (0.24%) were called active. This list was built around the results that the source calls inconclusive (neither active nor inactive); the mix of calls is not that of the screen. Calls follow the shape of the dose curve; as a rule, active = well fitted activation curve with a large enough effect; inconclusive = small, poorly fitted or top-dose-only effect; inactive = no such curve, though single readings can be large or run the other way. Potencies of inconclusive entries are doubtful fits and often do not repeat.

experiment: qHTS for Suppressors of FUS Proteinopathy: Primary screen using FUS-linked yeast assay; also: nearly all actives have a fitted effect of over 55% in size;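 as to growth rescue (activation): plate controls were DMSO vehicle for no effect and reference control for full effect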; conditions: S. cerevisiae FUS-expressing, OD600, 24 h; Potency: growth rescue; growth rescue (activation): at 76.6 µM (top of the series)
Outline: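 Quantitative HTS measuring growth restoration of FUS-toxic yeast. Galactose-induced cells (OD 0.005) were exposed 24hr at 30C to compounds at several concentrations, then absorbance at 600 nm was recorded.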
Potency is read from the fitted curve at half-maximal effect; tags tell the direction and shape of the fitted curve.

Row | SMILES | Potency | growth rescue (activation)
1 | COc1cc2c(cc1OC)CN(C(=O)c1ccc(OC)c([N+](=O)[O-])c1)CC2 | inactive | 
2 | CCCc1nc2cc(C)c(Br)c(C)n2c1Cc1ccccc1OC | inactive | 
3 | O=C(Cc1ccccc1)NCCn1ccc2ccccc21 | inactive | 
4 | CCN(CC)CCN(C(=O)c1cc2c(ccc3ccccc32)oc1=O)c1nc2cc3c(cc2s1)OCCO3 | inconclusive: 31.6 µM [activator, single point] | 
5 | Cc1nc(Cl)c(C(=O)NC(C)(C)C)c(C)c1Cl | inactive | 
6 | COc1ccc2c(c1)/C(=N/OC(=O)c1cccs1)CCC2 | inactive | 
7 | Cc1ccc(CNC(=O)c2ccc3c(c2)N(Cc2ccccc2)C(=O)c2ccccc2S3(=O)=O)cc1 | inconclusive: 17.8 µM [activator, partial curve, poor fit] | 
8 | Cc1ccc2c(c1)N(C(=O)C1CCN(S(=O)(=O)c3c(C)noc3/C=C/c3ccccc3F)CC1)CCO2 | inactive | 
9 | Cc1c(C)c2ccc(OCC(=O)N(C)C)c(C)c2oc1=O | inactive | 
10 | O=C(O)CCSc1nnc(COc2cccc3ccccc23)n1-c1cccc(Cl)c1 | inconclusive: 28.2 µM [activator, single point] | 
11 | COc1ccc2nc(NC(=O)CCN3C(=O)c4ccccc4C3=O)sc2c1 | inconclusive: 35.5 µM [activator, partial curve, poor fit] | 
12 | O=C(Nc1cccc(Cl)c1)N1CCC(CN2CCOCC2)CC1 | inactive | 
13 | Cc1cc(C(=O)NC2CCCN(Cc3ccc(Cl)cc3)C2)c(C)o1 (stereo unspecified) | inactive | 
14 | O=C(Nc1ccc2c(c1)OCO2)C1Cc2c(-c3ccccc3Oc3ccccc3)ccnc2O1 (stereo unspecified) | inconclusive: 17.8 µM [activator, partial curve, poor fit] | 
15 | COc1ccc(C)cc1NC(=O)CSc1nnc(COc2ccccc2)n1Cc1ccco1 | inconclusive: 50.1 µM [activator, single point] | 
16 | COCc1c(C(=O)OCC(=O)c2c(N)n(CC(C)C)c(=O)n(C)c2=O)oc2ccccc12 | inconclusive: 50.1 µM [activator, single point] | 
17 | COc1ccc(NC(=O)C[C@H]2C(=O)N(c3ccc(Br)cc3)C[C@@H]2c2ccc(OC)cc2)cc1 | inconclusive: 50.1 µM [activator, single point] | 
18 | CCC(=O)N(c1nnc(SCC(=O)NN2C(=O)NC3(CCC(C)CC3)C2=O)s1)C1CC1 (stereo unspecified) | inconclusive: 7.94 µM [activator, full curve] | 
19 | C#CCOc1ccc(/C=C2/C(=O)N(c3cccc(C(=O)O)c3)N=C2C)cc1OC | inconclusive: 28.2 µM [activator, single point] | 
20 | CCCCN(CC)C(=O)c1cc2c(=O)n3ccccc3nc2n1C | inactive | 
21 | Cc1ccc(-n2ncc(C(=O)Nc3ccc4c(c3)OCO4)c2C2CCN(C(=O)OC(C)(C)C)CC2)c(C)c1 | inconclusive: 15.8 µM [activator, partial curve, poor fit] | 

Row | SMILES | Potency | growth rescue (activation)
22 | c1ccc(-n2ncc3c(NCC4CCCO4)ncnc32)cc1 (stereo unspecified) | inactive | 
23 | COc1cc(/C=C/C(=O)OCC(=O)N2c3ccccc3CC2C)cc(OC)c1OC (stereo unspecified) | inconclusive: 22.4 µM [activator, single point] | 
24 | C[C@@H]1CN([C@@H](C)CO)S(=O)(=O)c2ccc(-c3cccc(C#N)c3)cc2O[C@@H]1CN(C)C(=O)c1ccc(F)cc1 | inconclusive: 39.8 µM [activator, single point] | 
25 | CC1C(=O)Nc2ccc(S(=O)(=O)N3CCN(c4cccc(Cl)c4)CC3)cc2NC1=O (stereo unspecified) | inconclusive: 39.8 µM [activator, single point] | 
26 | CC(=O)c1ccc(N2C(=O)N(Cc3ccccc3C#N)c3ccccc3S2(=O)=O)cc1 | inconclusive: 31.6 µM [activator, partial curve, poor fit] | 
27 | COc1ccc(Cn2nc(-c3ccccc3)c(N3CCCCC3)cc2=O)cc1 | inconclusive: 50.1 µM [activator, single point] | 
28 | CC(=O)OC[C@@H]1CN(Cc2cccc(C(F)(F)F)c2)C[C@H](n2cnc3c(N4CCOCC4)ncnc32)O1 | inconclusive: 15.8 µM [activator, partial curve] | 
29 | COc1ccc(CNC(=O)c2ccc(NC(=O)CC3SC(N4CCCCC4)=NC3=O)cc2)cc1 (stereo unspecified) | inconclusive: 15.8 µM [activator, partial curve] | 
30 | COc1ccc(S(=O)(=O)N2CCC(C(=O)N3CCc4ccccc4C3)CC2)cc1C | inconclusive: 12.6 µM [activator, partial curve, poor fit] | 
31 | Cc1cc(C(=O)COC(=O)c2ccc(CO)cc2)c(C)n1CC1COc2ccccc2O1 (stereo unspecified) | inconclusive: 50.1 µM [activator, single point] | 
32 | CCOC(=O)N1CCc2c(sc3c2c(=O)n(Cc2ccccc2)c(=O)n3CC(=O)Nc2ccc(C)cc2C)C1 | inactive | 
33 | CC(C)(C)OC(=O)N1CCC(c2c(C(=O)O)cnn2-c2ccc(Cl)cc2)CC1 | inconclusive: 22.4 µM [activator, partial curve, poor fit] | 
34 | CC(=O)Nc1ccc(NC(=O)c2ccc3c(c2)NC(=O)c2ccccc2S3)cc1 | inconclusive: 28.2 µM [activator, partial curve, poor fit] | 
35 | COc1ccc(F)cc1-c1cc(NC=O)c2ncc(-c3cccc(C(F)(F)F)c3)n2c1 | inconclusive: 20 µM [activator, partial curve] | 
36 | COc1ccc([C@H]2N[C@]3(CCCN(CC4CCCCC4)C3=O)[C@H]3C(=O)N(Cc4ccccc4)C(=O)[C@@H]23)cc1 | inconclusive: 28.2 µM [activator, partial curve] | 
37 | Cc1cccc(N2CCN(S(=O)(=O)c3cc(-c4cc(C)no4)ccc3C)CC2C)c1 (stereo unspecified) | inactive | 
38 | O=C(OCc1nc2ccc(Cl)cc2n1CCO)c1ccc2c(c1)OCO2 |  | inconclusive: 79.6% [activator]
39 | Cc1c(C(=O)N2CCC(N3CCSCC3)CC2)oc2c(F)cccc12 | inconclusive: 17.8 µM [activator, partial curve] | 
40 | CSCCC(NC(=O)COc1ccccc1)C(=O)N1CCN(c2cccc(C(F)(F)F)c2)CC1 (stereo unspecified) | inconclusive: 35.5 µM [activator, partial curve, poor fit] | 
41 | CCCN(CC(=O)Nc1ccccc1C)C(=O)c1cccc(S(=O)(=O)N2CCc3ccccc3C2)c1 | inconclusive: 22.4 µM [activator, single point] | 
42 | CC1(C(=O)NS(=O)(=O)c2cccc(OC(F)F)c2)CCN1C(=O)Cc1cccs1 (stereo unspecified) | inactive | 

Row | SMILES | Potency | growth rescue (activation)
43 | COC(=O)c1ccc(-n2c(C)cc(/C=N/Nc3nc(C)cc(=O)[nH]3)c2C)cc1 | inconclusive: 6.31 µM [activator, full curve, poor fit] | 
44 | COc1ccc(NC(=O)C(CCCCNC(=O)OC(C)(C)C)NC2(C(=O)NCCc3c[nH]c4ccccc34)CCCCC2)cc1 (stereo unspecified) | inconclusive: 20 µM [activator, partial curve, poor fit] | 
45 | COc1ccc(NC(=O)C(c2cc3c(cc2[N+](=O)[O-])OCO3)N(C)c2ccccc2)cc1 (stereo unspecified) | inconclusive: 50.1 µM [activator, single point] | 
46 | COc1ccc(N2CCN(CC(=O)c3ccccc3)CC2)cc1 | inactive | 
47 | CCOCCn1c(CN(Cc2ccccc2)Cc2ccccc2)nc2c1c(=O)n(C)c(=O)n2C | inconclusive: 25.1 µM [activator, single point] | 
48 | C/C(=N\N1CCN(c2ccccc2)CC1)c1cccs1 | inconclusive: 28.2 µM [activator, partial curve, poor fit] | 
49 | C#CCN1C(C)=C(C(=O)OC)C(c2cccc([N+](=O)[O-])c2)C(C(=O)OCC)=C1C (stereo unspecified) | inactive | 
50 | CCN1C(=O)[C@H]2[C@@H](c3ccc(SC4CCCCC4)c(OC)c3)N3CCCC[C@@]3(C(=O)OC)[C@H]2C1=O | inconclusive: 20 µM [activator, single point] | 
51 | COC(=O)[C@]12C[C@H](CC(=O)NCc3ccccc3)C(=O)N(Cc3cccc4ccccc34)C1=C[C@H](C(C)C)O[C@@H]2C1CC1 | inconclusive: 7.94 µM [activator, partial curve] | 
52 | Cc1ccc(-c2onc3ccc(C=O)cc23)cc1 |  | inconclusive: 46.4% [activator]
53 | CN(Cc1cccc(F)c1)C(=O)c1ccc(S(=O)(=O)N2CCCCCC2)cc1 | inconclusive: 8.91 µM [activator, partial curve] | 
54 | Cc1ccccc1OCC(=O)Nc1ccc2nc(SCC(=O)N3CCc4ccccc43)sc2c1 | inconclusive: 35.5 µM [activator, single point] | 
55 | COc1cc2c(cc1OC)CN(C1CC(=O)N(c3c(C)cccc3C)C1=O)CC2 (stereo unspecified) | inactive | 
56 | NC(Cc1c[nH]c2ccc(OCc3ccccc3)cc12)C(=O)O (stereo unspecified) | inconclusive: 4.47 µM [activator, full curve, poor fit] | 
57 | COc1cc(S(=O)(=O)N2CCCCC2)ccc1NC(=O)c1ccccc1Cl | inconclusive: 39.8 µM [activator, single point] | 
58 | CCOc1cc(/C=C2/NC(=O)N(CC(=O)Nc3cccc(C)c3)C2=O)ccc1OCC(N)=O | inconclusive: 50.1 µM [activator, single point] | 
59 | CCOC(=O)COc1ccc2c(=O)c(-c3ccccc3OC)coc2c1 | inactive | 
60 | Cc1c(C2=CCN(S(=O)(=O)c3cccc(Cl)c3)CC2)c2ccccc2n1CC(=O)N1CCCC1 | inconclusive: 39.8 µM [activator, single point] | 
61 | CCCn1c(C)cc(/C=C(\C#N)C(=O)OCC(=O)N(C)c2c(N)n(Cc3ccccc3)c(=O)[nH]c2=O)c1C | active: 25.1 µM | 
